According to the BET-seq Pho4 binding data (Le et al. 2018):
The list shows a part of the results. Values were computed here from the reads of four pooled replicates and scatter widely.

What follows are sequences tested against T1, Pho4 (S. cerevisiae) (UniProt P07270) (assay: relative binding free energy (BET-seq); higher = weaker binding). Conditions: reference: library average.
T1 sequence: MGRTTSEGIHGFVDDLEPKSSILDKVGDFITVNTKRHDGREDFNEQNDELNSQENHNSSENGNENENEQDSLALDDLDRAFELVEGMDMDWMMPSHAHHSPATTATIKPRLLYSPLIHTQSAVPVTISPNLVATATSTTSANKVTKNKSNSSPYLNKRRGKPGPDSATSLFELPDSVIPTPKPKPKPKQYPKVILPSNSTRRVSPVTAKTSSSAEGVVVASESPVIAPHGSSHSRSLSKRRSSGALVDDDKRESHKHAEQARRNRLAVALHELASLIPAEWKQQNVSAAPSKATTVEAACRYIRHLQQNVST

Sequence | relative binding free energy
GTGATCACGTGATAAT | 0.38 kcal/mol
AAATGCACGTGCTGGG | -0.04 kcal/mol
TTACCCACGTGGTTGG | -0.13 kcal/mol
GTATACACGTGGTGGC | 0.06 kcal/mol
CGGTTCACGTGCGTAG | 0.17 kcal/mol
ATTAGCACGTGGTGGA | -0.14 kcal/mol
TGAGTCACGTGCGGGG | 0.15 kcal/mol
CTTTTCACGTGGGGAA | 0.04 kcal/mol
GAGAGCACGTGTGGTT | 0 kcal/mol
GTTATCACGTGTAGGC | 0.14 kcal/mol
CTGCTCACGTGTAGGG | 0.2 kcal/mol
GTGTTCACGTGTAAAT | 0.32 kcal/mol
TGACGCACGTGCGAGT | -0.06 kcal/mol
GGTTCCACGTGGGCGG | -0.06 kcal/mol
TGATGCACGTGAGGGT | 0.2 kcal/mol
GCGGTCACGTGGGTTC | 0.06 kcal/mol
GTGTGCACGTGGAGTG | 0.05 kcal/mol
CAGTACACGTGGAGGG | 0.1 kcal/mol
GGTCACACGTGAGGTG | 0.3 kcal/mol
ATAGACACGTGAGTTG | 0.25 kcal/mol
CTGGTCACGTGATGCT | 0.23 kcal/mol
TCAGGCACGTGGGTCT | -0.29 kcal/mol
TTGGTCACGTGGCTAT | 0.02 kcal/mol

Sequence | relative binding free energy
GCTTACACGTGATGTT | 0.22 kcal/mol
ATCGGCACGTGTCGGG | -0.09 kcal/mol
TTGGTCACGTGGAGCG | 0.05 kcal/mol
GCTGTCACGTGTATGT | 0.19 kcal/mol
TGTCGCACGTGGGTGA | -0.21 kcal/mol
TTTTACACGTGGGGAA | 0.05 kcal/mol
GGGAACACGTGTATGG | 0.16 kcal/mol
GGCGTCACGTGTGGGC | 0.11 kcal/mol
GTGATCACGTGTTGTG | 0.19 kcal/mol
GTGTGCACGTGTCCGT | 0.02 kcal/mol
CATGTCACGTGGGCTT | -0.08 kcal/mol
ATTGTCACGTGAGGCT | 0.22 kcal/mol
AGTGTCACGTGGGCGA | -0.03 kcal/mol
TTTAGCACGTGCAGTG | -0.17 kcal/mol
TTAGGCACGTGAAGGC | 0.19 kcal/mol
CTGTGCACGTGGGTTT | -0.13 kcal/mol
TAGGGCACGTGGGTGG | -0.2 kcal/mol
GTAGACACGTGAGGTG | 0.32 kcal/mol
GTGATCACGTGTGTTA | 0 kcal/mol
GGTGTCACGTGAGTAT | 0.39 kcal/mol
AGAGTCACGTGAGGTC | 0.37 kcal/mol
GGTGGCACGTGAACGG | 0.04 kcal/mol
TAATTCACGTGTTGAG | 0.27 kcal/mol

Sequence | relative binding free energy
GAGTTCACGTGTTGGT | 0.46 kcal/mol
GCGTTCACGTGGTAGT | 0.24 kcal/mol
TGGTTCACGTGTTTAA | 0.25 kcal/mol
GCTCTCACGTGTGGGG | 0.18 kcal/mol
GACGACACGTGAGGAG | 0.56 kcal/mol
TGTTACACGTGGTCTT | 0.15 kcal/mol
GTGGGCACGTGTTACG | -0.03 kcal/mol
TTCATCACGTGTGGGG | 0.3 kcal/mol
GTTGGCACGTGTGAGG | -0.02 kcal/mol
TAAATCACGTGTGTAT | 0.33 kcal/mol
TTATACACGTGCTGGT | -0.06 kcal/mol
GGCGGCACGTGGCTGG | -0.08 kcal/mol
GAAATCACGTGACGGG | 0.51 kcal/mol
ATGTCCACGTGGTGTG | -0.05 kcal/mol
AATTGCACGTGAGCGT | -0.05 kcal/mol
CTGAGCACGTGGTCTG | -0.09 kcal/mol
AACTTCACGTGGTGTG | 0.06 kcal/mol
CTAGGCACGTGGGTAC | -0.18 kcal/mol
ATCAACACGTGTAGGT | 0.13 kcal/mol
GGTTTCACGTGACGTA | 0.37 kcal/mol
GAAGGCACGTGTAATG | 0 kcal/mol
TGTTCCACGTGAATGT | 0.32 kcal/mol
GGAATCACGTGTATGT | 0.18 kcal/mol

Sequence | relative binding free energy
AAGTACACGTGAAGTG | 0.28 kcal/mol
AGGGCCACGTGAGATT | 0.24 kcal/mol
GTTGTCACGTGATGAG | 0.16 kcal/mol
ATTGCCACGTGTTTGA | -0.14 kcal/mol
TAAGTCACGTGGGAGT | -0.01 kcal/mol
TAGCTCACGTGGTGGG | 0.06 kcal/mol
GATGTCACGTGTAGAA | 0.24 kcal/mol
TAGCTCACGTGGGTAA | 0.15 kcal/mol
GTAGTCACGTGTTTGC | 0.24 kcal/mol
ATGTACACGTGTGAAG | 0.08 kcal/mol
TTTTGCACGTGTTATA | 0 kcal/mol
TTAAGCACGTGTGTGC | -0.03 kcal/mol
CTTTTCACGTGCTTTG | 0.26 kcal/mol
ATTATCACGTGTGTAC | 0.16 kcal/mol
TGAAACACGTGTTTGG | 0.01 kcal/mol
TATAGCACGTGGCTGG | -0.14 kcal/mol
AGTGCCACGTGGGCGG | -0.24 kcal/mol
GACTTCACGTGTGGGT | 0.3 kcal/mol
ATAACCACGTGGGGTT | -0.17 kcal/mol
AATGGCACGTGCATTG | -0.14 kcal/mol
TGTAGCACGTGCCGTT | -0.08 kcal/mol
AGGAGCACGTGGTGTA | -0.23 kcal/mol
TGTGGCACGTGGCCTA | -0.29 kcal/mol

Sequence | relative binding free energy
GTGATCACGTGCTGGC | 0.16 kcal/mol
TATAGCACGTGTGCGG | -0.06 kcal/mol
AGTCGCACGTGTGGCT | 0.08 kcal/mol
ACGGGCACGTGTGCTG | -0.13 kcal/mol
TCCTGCACGTGATTGG | 0.25 kcal/mol
TCGTGCACGTGAGTTA | 0.18 kcal/mol
TCTCGCACGTGTTATT | 0 kcal/mol
CAGTTCACGTGTTGTT | 0.22 kcal/mol
CGGAACACGTGGGTGT | -0.34 kcal/mol
TGCGGCACGTGGTTGG | -0.03 kcal/mol
TGGGCCACGTGGTCGC | -0.16 kcal/mol
TAAGGCACGTGGCGGT | -0.11 kcal/mol
GTAATCACGTGGAATT | 0.25 kcal/mol
GTTTTCACGTGTTTGG | 0.39 kcal/mol
TTTCGCACGTGTGTGC | 0.03 kcal/mol
AGAGGCACGTGTTATG | -0.15 kcal/mol
TATAGCACGTGAGAGG | 0.13 kcal/mol
TGAAGCACGTGGGTAA | -0.06 kcal/mol
ATAGTCACGTGGAAAA | 0.23 kcal/mol
TATTTCACGTGTAAGG | 0.43 kcal/mol
TTCTGCACGTGCAGGT | -0.01 kcal/mol
AGTGGCACGTGAATAG | 0.19 kcal/mol
AGATGCACGTGGACGG | 0.06 kcal/mol
